Measurements: PubChem BioAssay AID1460 (National Center for Advancing Translational Sciences (NCATS), 2008)
Where “and” joins values, the source holds several entries; their conditions need not be identical. Equal values may be shown once. Out of some 270,000 compounds screened, about 5,800 (2.1%) were called active. The shares of active, inactive and inconclusive entries below differ from those in the screen. The call rests on the fitted dose curve; in most records, active means well fitted inhibition curve with a large enough effect; inconclusive means small, poorly fitted or top-dose-only effect; inactive means flat fitted curve, though single readings scatter. Where the call is inconclusive, the potency comes from a doubtful curve fit. More than one record can exist for a structure, and the calls need not agree.
Further: nearly all actives have a fitted effect of over 55% in size.
Potency means the concentration at half of the fitted maximal effect; tags describe the fitted curve by direction and shape.

The compounds below were run against Microtubule-associated protein tau (Homo sapiens) (UniProt P10636) (assay: qHTS for Inhibitors of Tau Fibril Formation, Thioflavin T Binding). Settings: recombinant tau K18 P301L (four-repeat tau fragment), heparin-induced fibrillization, ThT fluorescence; series mostly up to 57.4 µM.
Sequence of UniProt P10636 (P10636 whole entry, looked up, the tested form may be a part): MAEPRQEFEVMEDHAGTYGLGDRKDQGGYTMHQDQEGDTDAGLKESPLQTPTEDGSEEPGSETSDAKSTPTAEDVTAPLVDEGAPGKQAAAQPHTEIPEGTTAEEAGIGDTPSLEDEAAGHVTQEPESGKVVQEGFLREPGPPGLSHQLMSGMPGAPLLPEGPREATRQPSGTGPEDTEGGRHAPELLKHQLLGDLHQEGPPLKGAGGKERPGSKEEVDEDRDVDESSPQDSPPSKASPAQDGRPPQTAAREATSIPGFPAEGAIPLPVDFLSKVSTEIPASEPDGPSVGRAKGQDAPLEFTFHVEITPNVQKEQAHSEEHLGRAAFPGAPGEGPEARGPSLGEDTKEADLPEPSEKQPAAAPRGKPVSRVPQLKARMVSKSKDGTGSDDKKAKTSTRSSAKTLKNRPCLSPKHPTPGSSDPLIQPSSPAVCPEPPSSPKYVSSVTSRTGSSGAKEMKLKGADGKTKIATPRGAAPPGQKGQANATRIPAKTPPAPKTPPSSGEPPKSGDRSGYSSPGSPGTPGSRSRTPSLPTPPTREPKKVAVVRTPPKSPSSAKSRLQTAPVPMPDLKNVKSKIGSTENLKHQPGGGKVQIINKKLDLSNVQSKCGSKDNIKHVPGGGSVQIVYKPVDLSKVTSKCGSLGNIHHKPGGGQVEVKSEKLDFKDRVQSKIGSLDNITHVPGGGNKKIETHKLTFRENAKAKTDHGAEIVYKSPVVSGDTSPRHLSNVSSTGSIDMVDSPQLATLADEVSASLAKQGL
In short: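 In this qHTS, human K18 P301L tau is incubated with compound and heparin for 6 hr at 37 C, and Thioflavin T fluorescence then reports fibril load.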
In the case of `COc1ccc(NC(=S)Nc2ccc3nsnc3c2)cc1`, the Potency is reported as active: 11.2 µM. In the case of `COC(=O)c1ccccc1SC1CC(=O)N(c2cccc(C)c2)C1=O` (stereo not drawn), the Potency is reported as inconclusive: 20 µM [inhibitor, partial curve]. `OC1O[C@H](c2ccc3c(c2)OCO3)[C@H]2CO[C@H](c3ccc4c(c3)OCO4)[C@@H]12` (stereo partly drawn) was tested, and the Potency was inconclusive: 7.08 µM [inhibitor, single point]. `CNC[C@H](O)c1ccc(O)c(O)c1` was tested, and the Potency was active: 14.1 µM and active: 7.94 µM. In the case of `CC1(OC(=O)CCc2ccccc2)C(=O)C=C2C=C(C3CC3)OC=C2C1=O` (stereo not drawn), the Potency is reported as inconclusive: 0.0631 µM [inhibitor, full curve, poor fit]. With `COc1cc(C(=O)NNC2=CC(=O)CC(C)(C)C2)cc(OC)c1OC` the Potency was “inactive”. `CCc1ccc(N2CC(C(=O)N/N=C/c3cc([N+](=O)[O-])ccc3O)CC2=O)cc1` (stereo not drawn) was tested, and the Potency was inconclusive: 11.2 µM [inhibitor, partial curve]. With `C=CCNC(=O)c1sc(SC)cc1-c1ccc(Cl)cc1` the Potency was inconclusive: 39.8 µM [inhibitor, single point]. With `Cc1nnc(NC(=O)c2ccc3ccccc3n2)s1` the Potency was inconclusive: 15.8 µM [inhibitor, partial curve]. `COC(=O)COc1ccc(-n2cnnn2)cc1` was tested, and the Potency was inconclusive: 22.4 µM [inhibitor, partial curve, poor fit]. With `Cc1[nH]c2ccccc2c1/C=N/NC(=O)c1cc(-c2cccs2)[nH]n1` the Potency was active: 5.62 µM. For `CC(C)c1ccc(-c2csc(NC(=O)c3cccs3)c2C(=O)O)cc1`, the Potency was inconclusive: 31.6 µM [inhibitor, partial curve]. `O=C(COc1ccc(Cl)cc1)N1CCN(c2cccc(C(F)(F)F)c2)CC1` was tested, and the Potency was inconclusive: 10 µM [inhibitor, partial curve]. In the case of `CCNC(=S)N/N=C/c1c(Cl)cccc1Cl`, the Potency is reported as “inactive”. For `Cc1cc(C(=O)NN)c(C)o1`, the Potency was inconclusive: 22.4 µM [inhibitor, single point]. With `Cc1ccc(NCC(=O)N/N=C\c2ccc([N+](=O)[O-])o2)cc1` the Potency was inconclusive: 10 µM [inhibitor, partial curve]. For `Cc1ccc(/C=N/Nc2nc3ccccc3s2)o1`, the Potency was inconclusive: 12.6 µM [inhibitor, partial curve]. `COC(=O)C1=C(Nc2cc(Cl)cc(Cl)c2)CSC1` was tested, and the Potency was “inactive”. With `COc1cccc(N2CCN(Cc3nnc(-c4ccc5c(c4)OCO5)o3)CC2)c1` the Potency was inconclusive: 31.6 µM [inhibitor, partial curve]. For `Cc1cccc(-c2nc3nc(C)cc(N4CCN(c5ccccc5)CC4)n3n2)c1`, the Potency was inconclusive: 2.82 µM [inhibitor, single point]. In the case of `COc1ccc(N2CCN(C(=O)CCn3cnc4onc(-c5ccc(F)cc5)c4c3=O)CC2)cc1`, the Potency is reported as inconclusive: 5.01 µM [inhibitor, full curve, poor fit]. `COc1cc(/C=N\Nc2ccc([N+](=O)[O-])cn2)ccc1OCC(=O)O` was tested, and the Potency was active: 12.6 µM. With `CC1CC(N(C(=O)c2ccccc2Cl)c2ccccc2)c2ccccc2N1` (stereo not drawn) the Potency was inconclusive: 15.8 µM [inhibitor, partial curve]. For `COc1cccc(C(=O)n2nc(-c3ccco3)nc2NCc2cccs2)c1`, the Potency was inconclusive: 15.8 µM [inhibitor, partial curve]. In the case of `CCOC(=O)Cc1csc(-n2sc3ccccc3c2=O)n1`, the Potency is reported as active: 28.2 µM. With `O=C(/C=C/c1ccc([N+](=O)[O-])s1)N1CCCC1` the Potency was inconclusive: 25.1 µM [inhibitor, partial curve]. For `CCc1ccc(-c2cc3c(N4CCN(c5ccccc5)CC4)nccn3n2)cc1`, the Potency was inconclusive: 1.41 µM [inhibitor, partial curve, poor fit]. In the case of `Cc1nc2c(O)cccc2cc1CO`, the Potency is reported as “inactive”. In the case of `COc1ccc(Br)cc1CNC(=O)c1ccc2c(c1)nc1n2CCCCC1`, the Potency is reported as inconclusive: 39.8 µM [inhibitor, single point]. For `Cc1ccc(C(=O)N/N=C\c2ccc(-c3ccc([N+](=O)[O-])cc3)o2)cn1`, the Potency was active: 3.16 µM. With `COc1ccc2nc(N3CCN(C(=O)c4ccco4)CC3)sc2c1` the Potency was inconclusive: 3.16 µM [inhibitor, partial curve]. With `CC(C)CC(=O)Nc1ccc(-c2cn3ccsc3n2)cc1` the Potency was inconclusive: 15.8 µM [inhibitor, partial curve]. In the case of `Cc1cc(OCc2nc3ccccc3s2)ccc1N`, the Potency is reported as active: 14.1 µM. In the case of `Cc1ccc2nc(-c3ccc(NC(=O)c4ccco4)cc3)[nH]c2c1`, the Potency is reported as inconclusive: 20 µM [activator, single point]. In the case of `CC(=O)N1CCN(c2ccc(NC(=S)NC(=O)/C=C/c3ccccc3)cc2)CC1`, the Potency is reported as inconclusive: 0.562 µM [inhibitor, full curve]. In the case of `C=C1CSc2nc(=O)c3c4c(sc3n21)CCCC4`, the Potency is reported as inconclusive: 14.1 µM [inhibitor, partial curve]. `Cc1ccc(-c2nc3c4ccccc4n(Cc4cccc(Cl)c4)c(=O)n3n2)cc1` was tested, and the Potency was “inactive”. For `O=C1c2[nH]nc(-c3ccccc3O)c2C(c2ccc(F)cc2)N1Cc1ccco1` (stereo not drawn), the Potency was inconclusive: 20 µM [inhibitor, single point]. For `C#CCNC(=O)C1=C[C@H](C2CCCCC2)C[C@H](OCc2ccc(CO)cc2)O1`, the Potency was inconclusive: 0.0251 µM [inhibitor, full curve, poor fit]. For `CC1=C(C(=O)OCc2ccccc2)C(c2ccc(Cl)cc2)NC(=O)N1CCCCCC(=O)O` (stereo not drawn), the Potency was inconclusive: 1.58 µM [inhibitor, partial curve]. `CCN1CCN(C(c2ccccc2)c2c(O)cc(C)n(CCOC)c2=O)CC1` (stereo not drawn) was tested, and the Potency was inconclusive: 14.1 µM [inhibitor, partial curve]. In the case of `O=C1CC(N2CCN(c3ccc(O)cc3)CC2)C(=O)N1c1ccc2c(c1)OCO2` (stereo not drawn), the Potency is reported as inconclusive: 35.5 µM [inhibitor, single point]. With `CO[C@@H]1COC(=O)[C@H]2CCCN2C(=O)C/C=C\[C@@H](C)[C@H](OC)COC(=O)[C@H]2CCCN2C(=O)C/C=C\[C@H]1C` the Potency was inconclusive: 7.08 µM [inhibitor, single point].
